Among all 310,000 compounds or so, about 14,000 (4.5%) showed an effect of 50% or more. Effects have a minus sign here. Some of the results follow.
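Also: peak tail current of the secondary pulse compared with the same well before compound.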

In this assay the target is human ether-à-go-go-related gene (hERG) potassium channel (human, UniProt Q12809). Kind of assay: primary screen, population patch clamp on CHO cells stably expressing hERG.
Sequence of human ether-à-go-go-related gene (hERG) potassium channel (Q12809 whole entry, looked up): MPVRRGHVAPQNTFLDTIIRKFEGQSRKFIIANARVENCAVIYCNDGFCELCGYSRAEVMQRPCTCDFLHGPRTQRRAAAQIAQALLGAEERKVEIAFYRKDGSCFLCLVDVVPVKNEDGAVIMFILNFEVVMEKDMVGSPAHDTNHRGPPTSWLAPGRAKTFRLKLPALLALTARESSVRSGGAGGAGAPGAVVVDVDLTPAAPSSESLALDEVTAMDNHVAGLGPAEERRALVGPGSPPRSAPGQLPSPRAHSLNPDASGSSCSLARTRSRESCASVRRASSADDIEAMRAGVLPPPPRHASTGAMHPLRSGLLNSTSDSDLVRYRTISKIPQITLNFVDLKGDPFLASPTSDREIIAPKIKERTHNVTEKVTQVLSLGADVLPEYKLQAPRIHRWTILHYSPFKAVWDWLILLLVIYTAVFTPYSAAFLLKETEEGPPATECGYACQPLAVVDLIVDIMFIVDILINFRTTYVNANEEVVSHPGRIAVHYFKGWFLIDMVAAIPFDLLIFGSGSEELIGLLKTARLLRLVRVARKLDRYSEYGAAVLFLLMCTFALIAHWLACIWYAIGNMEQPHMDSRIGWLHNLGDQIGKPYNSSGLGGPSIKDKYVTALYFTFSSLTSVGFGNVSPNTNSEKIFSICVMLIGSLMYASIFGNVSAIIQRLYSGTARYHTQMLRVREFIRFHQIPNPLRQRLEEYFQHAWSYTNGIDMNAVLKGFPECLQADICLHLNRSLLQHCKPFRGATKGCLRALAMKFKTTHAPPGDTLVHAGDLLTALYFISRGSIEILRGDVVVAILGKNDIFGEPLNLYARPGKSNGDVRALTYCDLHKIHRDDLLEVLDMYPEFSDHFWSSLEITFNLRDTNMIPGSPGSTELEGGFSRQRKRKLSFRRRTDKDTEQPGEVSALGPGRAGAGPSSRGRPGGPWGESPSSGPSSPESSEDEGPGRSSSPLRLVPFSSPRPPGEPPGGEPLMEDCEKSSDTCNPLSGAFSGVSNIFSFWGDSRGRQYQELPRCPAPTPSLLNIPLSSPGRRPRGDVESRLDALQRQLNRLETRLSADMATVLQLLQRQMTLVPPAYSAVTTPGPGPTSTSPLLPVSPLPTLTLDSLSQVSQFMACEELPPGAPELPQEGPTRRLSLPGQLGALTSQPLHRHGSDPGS
With `Cc1ccc(-c2cc(Cc3ccncc3)c(=O)[nH]n2)cc1`, the “hERG current change (%, negative = inhibition) at 10uM” value is -37.2%.

On to `NC(=O)c1c(NC(=O)C(=O)NCCCN2CCOCC2)sc2c1CCCC2`, for which the “hERG current change (%, negative = inhibition) at 10uM” value is given as -21.9%.

As for `Cc1ccc(NS(=O)(=O)c2cc(C(=O)NCc3ccncc3)ccc2C)cc1`, the “hERG current change (%, negative = inhibition) at 10uM” value is -29.6%.

`CCn1c(SCC(=O)Nc2nc3ccccc3s2)nc2c(c1=O)SC(C)C2` (centres unmarked): the “hERG current change (%, negative = inhibition) at 10uM” value is reported as -25.8%.

Take `CC(Sc1nncn1C)C(=O)Nc1nnc(C(C)C)s1` (centres unmarked): the “hERG current change (%, negative = inhibition) at 10uM” value came out at 3.52%.

`COc1ccc(N=C2SC(CC(=O)Nc3ccccc3)C(=O)N2CC2CCCO2)cc1` (centres unmarked): the “hERG current change (%, negative = inhibition) at 10uM” value came out at 5.95%.

For `O=C(Nc1nnc(C2CC2)s1)C1CCCCN1S(=O)(=O)c1ccccc1` (centres unmarked), the “hERG current change (%, negative = inhibition) at 10uM” value is listed as 10.2%.

As to `CCOC(=O)c1cnc2c(OC)cccc2c1N1CC(C)CC(C)C1` (centres unmarked), the “hERG current change (%, negative = inhibition) at 10uM” value is reported as -17.1%.

Regarding `[O-][n+]1ccc(C2CC2)cc1`, the “hERG current change (%, negative = inhibition) at 10uM” value amounted to 7.13%.

With `Cc1cc(C(=O)Nc2ccc(F)cc2)c2ccccc2n1`, the “hERG current change (%, negative = inhibition) at 10uM” value is given as -0.679%.

With `CCN(CC)CCNC(=O)c1ccc(NC(=O)C2CCN(S(=O)(=O)c3ccc4c(c3)OCCO4)CC2)cc1`, the “hERG current change (%, negative = inhibition) at 10uM” value turned out to be 25.8%.

With `COc1cnc(-c2ccccn2)nc1Sc1ccc(C)cc1`, the “hERG current change (%, negative = inhibition) at 10uM” value came out at 8.52%.

In the case of `O=C(Nc1ccc(N2CCCC2)c(Cl)c1)c1ccc([N+](=O)[O-])cc1`, the “hERG current change (%, negative = inhibition) at 10uM” value is recorded as 15.9%.

With `NC(=O)c1ccccc1NS(=O)(=O)Cc1ccccc1`, the “hERG current change (%, negative = inhibition) at 10uM” value came out at 14.8%.

Consider `Cc1cccc(OCC(=O)O/N=C(\N)c2ccc(Br)cc2)c1`, for which the “hERG current change (%, negative = inhibition) at 10uM” value is on record as 7.71%.

With `CCN(CC)c1ccc(/C=N/N2CCOCC2)c(O)c1`, the “hERG current change (%, negative = inhibition) at 10uM” value is -2.51%.

Turning to `COc1ccc(Oc2ccc(S(=O)(=O)N3CCCCC3)cc2S(=O)(=O)N2CCCCC2)cc1`, the “hERG current change (%, negative = inhibition) at 10uM” value is listed as -6.19%.

As to `O=C(CN1CC=C(c2ccccc2)CC1)NC(=O)NCc1ccco1`, the “hERG current change (%, negative = inhibition) at 10uM” value is on record as -6.63%.

For `Cc1noc(C)c1-c1nc(CSc2ccccc2)no1`, the “hERG current change (%, negative = inhibition) at 10uM” value is listed as 5.46%.

`CN(C)S(=O)(=O)c1ccc(NC(=O)c2ccc3ncsc3c2)cc1`: the “hERG current change (%, negative = inhibition) at 10uM” value came out at 3.79%.

As for `CCn1c(=O)c(C(=O)NCc2ccc(OC)c(OC)c2)c(O)c2ccccc21`, the “hERG current change (%, negative = inhibition) at 10uM” value is reported as 18.4%.

Consider `O=C1C2C3C=CC(C3)C2C(=O)N1CNc1ccc(O)cc1` (centres unmarked), for which the “hERG current change (%, negative = inhibition) at 10uM” value is on record as -16.9%.

`CCOC(=O)c1cc(CC)sc1NC(=O)COC`: the “hERG current change (%, negative = inhibition) at 10uM” value was -19.5%.

For the molecule `CC(Sc1nnc(-c2ccncc2)n1C)C(=O)NCC1CCCO1` (centres unmarked), the “hERG current change (%, negative = inhibition) at 10uM” value was 4.42%.

As for `COc1ccc(C2c3[nH]c4ccccc4c3C[C@H]3C(=O)N(CCCO)CC(=O)N23)c(OC)c1` (some centres unmarked), the “hERG current change (%, negative = inhibition) at 10uM” value amounted to 0.728%.

As to `COC(=O)C1=C(C(=O)OC)[C@@H]2N(C)c3ccccc3[C@@]23C[C@@H](CO)N(C(=O)c2cccs2)C3=N1`, the “hERG current change (%, negative = inhibition) at 10uM” value was -4.01%.

Take `CC1CCN(S(=O)(=O)c2cccc(C(=O)NC3CCCC3)c2)CC1`: the “hERG current change (%, negative = inhibition) at 10uM” value is reported as -16.8%.

Regarding `CCOC(=O)C1CCCN(Cc2cc(Br)ccc2OC)C1` (centres unmarked), the “hERG current change (%, negative = inhibition) at 10uM” value is listed as -24.7%.

For the molecule `O=C(/C=C/c1c(Cl)cccc1Cl)NCCc1ccccc1`, the “hERG current change (%, negative = inhibition) at 10uM” value is -0.235%.

On to `CC1CCC[C@H](O)CCCCCc2cc(O)cc(O)c2C(=O)O1` (some centres unmarked), for which the “hERG current change (%, negative = inhibition) at 10uM” value is given as 5.64%.

As for `COc1ccc([N+](=O)[O-])cc1NC(=O)CSCc1ccccc1`, the “hERG current change (%, negative = inhibition) at 10uM” value is -23.3%.

In the case of `COc1ccccc1CNC(=O)CCCn1nc(C)n2ccnc2c1=O`, the “hERG current change (%, negative = inhibition) at 10uM” value was determined as 17%.

Regarding `COc1ccc(S(=O)(=O)N2CCN(C(=O)NCc3ccccc3)CC2)cc1`, the “hERG current change (%, negative = inhibition) at 10uM” value was -6.79%.

As for `Cc1ccc2c(C(=O)CSc3ccccc3)c(C)[nH]c2c1`, the “hERG current change (%, negative = inhibition) at 10uM” value turned out to be 3.03%.

Regarding `O=C(N/N=C/C=C/c1ccccc1)c1ccccc1Br`, the “hERG current change (%, negative = inhibition) at 10uM” value is reported as 12.7%.

For `O=C(O)c1ccccc1-c1ccccc1C(=O)Nc1cccc(-c2nc3ccccc3o2)c1`, the “hERG current change (%, negative = inhibition) at 10uM” value came out at 13.1%.

`CCCOc1ccc(-c2c(C(=O)N/N=C(\C)c3ccco3)nnn2-c2nonc2N)cc1`: the “hERG current change (%, negative = inhibition) at 10uM” value was determined as 22.5%.

For the molecule `COc1cnc(-c2ccccn2)nc1Sc1c(Cl)cccc1Cl`, the “hERG current change (%, negative = inhibition) at 10uM” value came to 1.45%.

With `S=C(Nc1ccc(Br)cc1Cl)N1CCN(c2ccccn2)CC1`, the “hERG current change (%, negative = inhibition) at 10uM” value is -4.02%.

In the case of `CC1(C)Cc2nc3sc(C(N)=O)c(N)c3cc2CO1`, the “hERG current change (%, negative = inhibition) at 10uM” value came to 18.3%.

For the molecule `O=C(Nc1nc2nccc(-c3ccccc3)n2n1)c1ccc(F)cc1`, the “hERG current change (%, negative = inhibition) at 10uM” value is listed as 33.2%.

Turning to `CCS(=O)(=O)c1nc(S(=O)(=O)c2ccc(Cl)cc2)c(NCCN2CCOCC2)s1`, the “hERG current change (%, negative = inhibition) at 10uM” value is recorded as -0.472%.

As to `CC(C)CNC(=O)CN(C1CCCCC1)S(=O)(=O)c1ccccc1`, the “hERG current change (%, negative = inhibition) at 10uM” value came out at 0.637%.

Take `O=C(CSc1n[nH]c(-c2cccnc2)n1)Nc1ccnc2ccccc12`: the “hERG current change (%, negative = inhibition) at 10uM” value is 5.38%.
